# Source: PubChem BioAssay AID588579 (National Center for Advancing Translational Sciences (NCATS), 2011)
# Several values for one entry are separate records, joined by “and”; a condition that tells them apart may be missing. Equal values may be shown once. Out of some 400,000 compounds screened, about 2,200 (0.55%) were called active. This list was built around the results that the source calls inconclusive (neither active nor inactive); the mix of calls is not that of the screen. Calls follow the shape of the dose curve; as a rule, active = well fitted inhibition curve with a large enough effect; inconclusive = small, poorly fitted or top-dose-only effect, or another doubt; inactive = no such curve, though single readings can be large or run the other way. Potencies beside an inconclusive call are fits to weak or partial responses and may not hold up. The source holds several records for some structures; these can differ, active in one and inactive in another.
# Target: DNA polymerase kappa (Homo sapiens) (UniProt Q9UBT6)
# Chain of UniProt Q9UBT6 (Q9UBT6 whole entry, looked up): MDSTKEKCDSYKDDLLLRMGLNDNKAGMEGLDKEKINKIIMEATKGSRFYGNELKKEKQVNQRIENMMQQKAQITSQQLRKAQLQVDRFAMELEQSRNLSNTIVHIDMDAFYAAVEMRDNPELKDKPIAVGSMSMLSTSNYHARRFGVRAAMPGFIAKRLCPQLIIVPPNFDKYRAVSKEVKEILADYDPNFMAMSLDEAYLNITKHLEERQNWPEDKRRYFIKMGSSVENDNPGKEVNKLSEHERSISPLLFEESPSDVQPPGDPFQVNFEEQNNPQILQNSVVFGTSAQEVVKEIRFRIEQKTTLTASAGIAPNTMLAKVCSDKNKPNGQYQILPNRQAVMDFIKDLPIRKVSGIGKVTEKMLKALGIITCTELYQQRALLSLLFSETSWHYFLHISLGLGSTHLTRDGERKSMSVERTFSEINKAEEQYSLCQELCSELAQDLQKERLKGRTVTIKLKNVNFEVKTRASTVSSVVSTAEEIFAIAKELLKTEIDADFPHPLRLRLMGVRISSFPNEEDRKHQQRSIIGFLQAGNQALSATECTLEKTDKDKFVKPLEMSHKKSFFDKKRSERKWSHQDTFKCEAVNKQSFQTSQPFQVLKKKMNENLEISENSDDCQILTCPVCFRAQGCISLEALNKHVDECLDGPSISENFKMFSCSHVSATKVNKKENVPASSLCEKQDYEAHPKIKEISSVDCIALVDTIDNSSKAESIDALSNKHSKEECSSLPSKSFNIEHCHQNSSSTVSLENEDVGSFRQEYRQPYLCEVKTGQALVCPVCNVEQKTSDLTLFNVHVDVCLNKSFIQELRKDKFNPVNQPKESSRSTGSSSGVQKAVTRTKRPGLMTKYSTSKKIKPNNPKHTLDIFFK
# Test: qHTS for Inhibitors of Polymerase Kappa
# Details: purified Pol kappa, fluorescent DNA synthesis assay, 10 min; series mostly up to 107 µM
# Method in brief: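 50 nM final substrate added after 15 min RT preincubation of 10 nM Pol kappa with compound; fluorescence read at 0 and 10 min.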
# Potency is read from the fitted curve at half-maximal effect; tags tell the direction and shape of the fitted curve.
row,Structure (SMILES),Potency
1,Cc1ccc2c(c1)N(CCCC(=O)NCc1cccc(F)c1)C(=O)CO2,"inconclusive: 100 µM [inhibitor, partial curve, poor fit]"
2,CCCCCCc1cc2cc(C(=O)NC)c(=N)oc2cc1O,inactive
3,C/C(=N\Nc1ccc(Cl)c(C(=O)O)c1)c1cccc2ccccc12,"inconclusive: 56.2 µM [inhibitor, partial curve, poor fit]"
4,O=C(NCc1ccco1)c1cc2c(s1)CSC2,active: 11.2 µM
5,CSc1ccc(Cl)c(C(=O)OCC(=O)NCc2ccco2)c1,"inconclusive: 89.1 µM [inhibitor, single point]"
6,CCOC(=O)C1=C(C)N(CCCC(=O)O)C(=O)NC1c1ccccc1OS(=O)(=O)c1ccc([N+](=O)[O-])cc1 (stereo not given),inactive
7,Clc1ccccc1-c1nc(NCc2cccs2)c2ccccc2n1,active: 31.6 µM
8,COc1cc(-c2cc(OC)c3c(C)oc(C)c3c(=O)c2)ccc1OC(=O)c1cccc(Cl)c1,inactive
9,C/C=C/C=C\C(=O)Nc1cccc(C2=NOC3(C2)C[C@H](C(N)=O)N(C(=O)CC#N)C3)c1 (stereo not given in full),active: 79.4 µM
10,O=C(COC(=O)c1cc(S(=O)(=O)N2CCOCC2)ccc1Cl)NCCc1ccccc1,inactive
11,Cc1oc(C)c2c(=O)ccc3c(c12)OC(N)=C(C#N)C3c1ccc(F)cc1 (stereo not given),"inconclusive: 89.1 µM [inhibitor, single point]"
12,O=S(=O)(O)c1cccc2cccc(Nc3ccccc3)c12,"inconclusive: 56.2 µM [inhibitor, partial curve, poor fit] and inconclusive: 35.5 µM [inhibitor, partial curve]"
13,COc1ccc2[nH]c3c(=O)n(Cc4ccc(C(=O)N5CCC(C(N)=O)CC5)cc4)c(=S)[nH]c3c2c1,inactive
14,COC(=O)C1CCN(C(=O)c2cc(-c3ccco3)nc3ccccc23)CC1,active: 22.4 µM
15,CC(C)COc1ccccc1C1CC(=O)Nc2cc3c(cc21)OCO3 (stereo not given),inactive
16,Cc1noc(C)c1COC(=O)C1(c2cccc(F)c2)CCCC1,inactive
17,COc1cc(C(=O)OCC(=O)c2cc(C)n(CC3CCCO3)c2C)cc(OC)c1C (stereo not given),"inconclusive: 79.4 µM [inhibitor, partial curve, poor fit]"
18,O=C(COc1ccc(/C=N/NC(=O)c2ccc(O)cc2)cc1)Nc1cccc([N+](=O)[O-])c1,"inconclusive: 89.1 µM [inhibitor, single point]"
19,CCCCC/C=C\C/C=C\C/C=C\CCCCC(=O)O,active: 23.8 µM and active: 50.1 µM
20,COc1ccc(N2Cc3cccc(C(=O)NC(C)CCc4ccco4)c3C2=O)cc1 (stereo not given),"inconclusive: 56.2 µM [inhibitor, partial curve, poor fit]"
21,CCCCN(C(=O)c1cc2c(s1)CCC2)c1c(N)n(CCC)c(=O)[nH]c1=O,"inconclusive: 89.1 µM [inhibitor, single point]"
22,COCCCn1c(=O)/c(=C\c2ccccc2OC(F)F)s/c1=C(/C#N)C(=O)NC(C)C,inactive
23,COc1cc(/C=N/NC(=O)c2ccc3c(c2)OCO3)ccc1O,inactive
24,CN(C)S(=O)(=O)c1cccc(-c2nn(-c3ccccc3)cc2/C=C2\SC(=S)NC2=O)c1,"inconclusive: 89.1 µM [inhibitor, single point]"

row,Structure (SMILES),Potency
1,Cc1cc(N=Nc2ccc(C)c(N=Nc3cc(C)c(N)cc3N)c2)c(N)cc1N,active: 50.1 µM
2,Cn1c(=O)oc2cc(S(=O)(=O)Nc3ccc(O)cc3)ccc21,inactive
3,Clc1ccc2c(NNc3ccccc3Cl)ccnc2c1,inactive
4,Cc1ccc(-c2nc(=S)c3c(n2Cc2ccco2)CC(C)(C)OC3)cc1,"inconclusive: 89.1 µM [inhibitor, partial curve, poor fit]"
5,O=C(O)c1cc(N/N=C2/CC(c3ccccc3)Oc3ccccc32)ccc1Cl (stereo not given),"inconclusive: 89.1 µM [inhibitor, partial curve, poor fit]"
6,O=C(O)CCCn1cc(NC(=O)c2sc3ccccc3c2Cl)cn1,inactive
7,COc1cccc2c1NC(C(=O)O)C1CC=CC21 (stereo not given),active: 7.94 µM
8,Cc1cccc(C(=O)Nc2cccc(OCc3cc(=O)n4c(C)csc4n3)c2)c1,inactive
9,O=[N+]([O-])c1ccc(N/N=C/c2ccc(O)c(O)c2O)c(S(=O)(=O)N2CCOCC2)c1,"inconclusive: 44.7 µM [inhibitor, partial curve, poor fit]"
10,COC(=O)c1c(C)sc(-c2c(-c3ccc(F)cc3)[nH]c3[nH]c(=O)[nH]c(=O)c23)c1O,"inconclusive: 100 µM [inhibitor, single point]"
11,COc1ccc(N=C2NC(=O)/C(=C\C=C\c3ccco3)S2)cc1,"inconclusive: 56.2 µM [inhibitor, partial curve, poor fit]"
12,O=c1cc2oc3cc(O)c(O)cc3c(-c3ccccc3[N+](=O)[O-])c-2cc1O,active: 0.794 µM
13,CCn1c(=NC(=O)c2ccc(N3C(=O)CCC3=O)cc2)sc2c(OC)ccc(OC)c21,"inconclusive: 50.1 µM [inhibitor, partial curve]"
14,O=C1COc2ccc(C(=O)COC(=O)/C=C/c3ccco3)cc2N1,"inconclusive: 89.1 µM [inhibitor, single point]"
15,CN(C)S(=O)(=O)c1ccc(N=Cc2c(C(F)(F)F)[nH][nH]c2=O)cc1,inactive
16,O=C(COC(=O)COc1ccccc1)Nc1ncc([N+](=O)[O-])s1,"inconclusive: 89.1 µM [inhibitor, single point]"
17,CN(Cc1ccco1)c1cc(-c2ccccc2Cl)ncn1,"inconclusive: 31.6 µM [inhibitor, single point]"
18,CCn1cc(C(=O)O)c(=O)c2cc(F)c(N/N=C/c3ccccc3[N+](=O)[O-])cc21,inactive
19,O=C(N/N=C/c1ccco1)C1CC1c1ccccc1 (stereo not given),"inconclusive: 89.1 µM [inhibitor, single point]"
20,O=C(CN1CCCCCCC1)N/N=C/c1ccc([N+](=O)[O-])o1,"inconclusive: 89.1 µM [inhibitor, single point]"
21,COc1ccc(NC(=O)CC2Nc3cccc4cccc(c34)NC2=O)cc1 (stereo not given),"inconclusive: 56.2 µM [inhibitor, partial curve, poor fit]"
22,Nc1ccc(C(CC(=O)O)n2cccc2)cc1 (stereo not given),active: 44.7 µM
23,Cc1cnc(NC(=O)c2sc(Nc3ccccc3)nc2N)o1,inactive
24,Cc1ccc(NC(=O)N/C=C/c2ccco2)cc1,active: 50.1 µM

row,Structure (SMILES),Potency
1,COc1ccc(CNC(=O)CCc2c(C)c3cc4c(C)coc4cc3oc2=O)cc1,inactive
2,O=C(O)c1ccc2c(ccc3nn(-c4ccc(/C=C/c5ccc(-n6nc7ccc8cc(C(=O)O)ccc8c7n6)cc5[S+](=O)([O-])[O-])c([S+](=O)([O-])[O-])c4)nc32)c1,active: 1.78 µM
3,C=CCOc1nc(N(C)C)nc(N(C)C)n1,inactive
4,CC(=O)OCCCNc1cc(SCc2ccco2)c2nonc2c1[N+](=O)[O-],active: 12.6 µM
5,O=C1C=C(O)c2c(O)cc(O)c(O)c2C1=O,active: 2 µM
6,CC1/C=C/C=C/C=C/C=C/C=C/C=C/C=C/C(OC2OC(C)C(O)C(N)C2O)CC2O[C@@](O)(CC(O)CC(O)C(O)CCC(O)CC(O)CC(=O)OC(C)[C@H](C)C1O)CC(O)C2C(=O)O (stereo not given in full),active: 3.55 µM
7,COc1ccc(S(=O)(=O)Nc2cc(Sc3ncn[nH]3)c(O)c3ccccc23)cc1,"inconclusive: 89.1 µM [inhibitor, single point]"
8,CCc1nnc(NS(=O)(=O)c2ccc(NC(=O)c3ccc(Br)cc3)cc2)s1,"inconclusive: 70.8 µM [inhibitor, single point]"
9,COC(=O)CCCCCCCCCC[N+]1(C)CCCCC1,inactive
10,COc1ccccc1CNCCCCCCNCCCCCCCCNCCCCCCNCc1ccccc1OC,"inconclusive: 3.16 µM [inhibitor, partial curve] and inconclusive: 7.52 µM [inhibitor, partial curve]"
11,Cc1ccc(CN2CCOCCS2(=O)=O)cc1,inactive
12,O=C(O)c1ccc(N/N=C/c2ccc(-c3cccc(Cl)c3)o2)cc1,inactive
13,Cc1cc(/C=C\c2nc(O)c([N+](=O)[O-])c(=O)[nH]2)c(C)n1-c1ccccc1,active: 89.1 µM
14,Cc1ccccc1NC(=O)Cn1c(=O)n(Cc2ccc3c(c2)OCO3)c(=O)c2ccc(C(=O)NC3CCCCC3)cc21,inactive
15,CCOC(=O)C1=C(C)NC(C)=C(C(=O)OCC)C1c1ccccc1C=CC(=O)OC(C)(C)C,"inconclusive: 23.8 µM [inhibitor, single point]"
16,COc1cc2ccc3c(CCN(C)C)cc(OC)c(OC)c3c2cc1OC,inactive
17,S=c1[nH]nc(-c2cc(-c3ccco3)[nH]n2)n1-c1ccccc1Cl,"inconclusive: 50.1 µM [inhibitor, partial curve]"
18,O=C(COC(=O)CCN1C(=O)/C(=C\C=C\c2ccccc2)SC1=S)Nc1cc(F)ccc1F,"inconclusive: 89.1 µM [inhibitor, partial curve, poor fit]"
19,COc1cccc(-c2cc(N(C)Cc3ccco3)ncn2)c1,"inconclusive: 39.8 µM [inhibitor, single point]"
20,CN1CCN(c2ncc3nc(-c4ccc(Cl)cc4)c(=O)n(C4CC4)c3n2)CC1,"inconclusive: 28.2 µM [inhibitor, partial curve, poor fit]"
21,CCCC(CCC)C(=O)O,"inconclusive: 21.2 µM [inhibitor, partial curve, poor fit]"
22,O=[N+]([O-])c1ccc2nc(-c3ccccc3)n(OCc3ccc(Cl)cc3)c2c1,"inconclusive: 89.1 µM [inhibitor, single point]"
